Screen size: about 48,000 compounds; about 450 (0.94%) were called active. Another 19% or so got no clear call; they are omitted. The call rests on the fitted dose curve; in most records, active means well fitted inhibition curve with a large enough effect; inconclusive means small, poorly fitted or top-dose-only effect; inactive means no such curve, though single readings can be large or run the other way. The list shows a part of the results.
Experiment: Primary qHTS for Identification of Small Molecule Inhibitors of Huntingtin Promoter Activity; further: nearly all actives have a fitted effect of over 50% in size
Conditions: HEK293 HTT promoter firefly luciferase reporter (activity 0% = vehicle and -100% = no light), 24 h; series mostly up to 57.5 µM; activity change, negative = inhibition: at the top concentration
Procedure, shortened: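 Quantitative HTS used concentration series of up to 57.5 uM final on HEK293 luciferase reporter cells, 24 h at 37 degrees C. Readout was Dual-Glo firefly luminescence.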

Row | SMILES | activity change, negative = inhibition
1 | Cc1ccc(C(=O)NCC(c2ccco2)S(=O)(=O)c2ccc(Cl)cc2)cc1C (centres undefined) | inactive: -35%
2 | CCCCNC(=O)c1cn(C)c2ccc(S(=O)(=O)N3CCCC3)cc2c1=O | inactive: -2.31%
3 | CCc1ccc(-n2nc(CO)c(C(=O)NCc3cccs3)n2)cc1 | inactive: -0.45%
4 | O=C(CSc1nc(=O)n(Cc2ccco2)c2c1CCC2)NCc1ccc(Cl)cc1 | inactive: -11.5%
5 | Cc1ccc(NC(=O)CCn2c(=O)c3cccn3c3ccccc32)cc1Cl | inactive: -24.6%
6 | COc1cc(OC)c(NC(=O)Cn2cnc3sc(C)c(S(=O)(=O)N4CCC(C)CC4)c3c2=O)cc1Cl | inactive: -10.6%
7 | COc1ccc(N2CC(NC(=O)C(=O)c3c(C)[nH]c4ccccc34)CC2=O)cc1 (centres undefined) | inactive: -11.9%
8 | Cc1cc(C)n(-c2nc3ccccc3nc2Nc2cc(Cl)ccc2C)n1 | inactive: -1.73%
9 | Cc1cc(C)c2nc(N(Cc3cccnc3)C(=O)Cc3ccccc3)sc2c1 | inactive: -15.5%
10 | Cc1cc(NC(=O)Nc2nnc(N3CCCCC3)s2)ccc1Br | inactive: 1.12%
11 | COc1ccccc1CNC(=O)CSc1nc(=O)[nH]c2c1CCCC2 | inactive: -6.8%
12 | CCCCCn1c(=O)[nH]c2cc(C(=O)NC(C)CC)ccc2c1=O (centres undefined) | inactive: -4.13%
13 | CCOc1ccc(CNC(=O)c2ccc3c(c2)nc2n3CCCCC2)cc1 | inactive: 46.1%
14 | COCCn1c(=O)[nH]c2cc(C(=O)Nc3ccc(OC)cc3)ccc2c1=O | inactive: -8.85%
15 | Cc1ccc2c(c1)cc(C(=O)NCc1ccccc1C)n2C | inactive: -23.3%
16 | CCc1cnc2c(c1SCC(=O)Nc1ccc(C(=O)OC)cc1)c(=O)n(C)c(=O)n2C | inactive: -6.23%
17 | CC(C)Oc1ccc(CNC(=O)C2CCN(Cc3cc4ccccc4n3Cc3ccccc3)CC2)cc1 | inactive: -26.6%
18 | CC(C)(C)c1ccc(OCCOCCn2c(-c3ccc(Cl)cc3)nc3ccccc3c2=O)cc1 | inactive: -3.91%
19 | CCn1c2ccccc2c2cc(NC(=O)COc3cc(C)ccc3C)ccc21 | inactive: -16.4%
20 | Cc1cccc(Cn2c(COc3ccccc3)nc3ccccc32)c1 | inactive: -10.1%
21 | O=C(/C=C/c1ccccc1)Nc1nc2n(n1)C(c1ccc(F)cc1)C=C(c1ccccc1)N2 (centres undefined) | inactive: -41.1%
22 | CCOC(=O)CNC(=O)c1cc2c(=O)n3cccc(C)c3nc2n1C | inactive: -6.89%
23 | CC(=O)CC/C=C(\C)CC/C=C(\C)CC/C=C(\C)CCC=C(C)C | inactive: -1.24%
24 | COc1ccc(NC(=O)c2nc(-c3ccc(C)cc3)n3c2CCCCC3)c(OC)c1 | inactive: 9.23%
25 | CCOCCc1nn2c(=O)cc(COC(=O)c3ccc(NC(=O)C(C)(C)C)cc3)nc2s1 | inactive: -38%

Row | SMILES | activity change, negative = inhibition
26 | Cc1cc2oc(C(=O)N(Cc3ccco3)Cc3ccccc3Cl)c(C)c2cc1C | inactive: -13.4%
27 | Cc1ccc(SCC(=O)Nc2ccc3oc(-c4ccccc4F)nc3c2)cc1 | inactive: 0%
28 | CCOC(=O)c1ccccc1NC(=O)c1cnc(N2CCOCC2)c2ccccc12 | inactive: -8.61%
29 | Cc1nn(C)c(C)c1CCNC(=O)Nc1ccccc1C(F)(F)F | inactive: -16.8%
30 | COc1ccc(N2CC(NC(=O)/C=C\c3ccccc3)CC2=O)cc1OC (centres undefined) | inactive: 2.02%
31 | CCN(CC)c1nn2c(=O)c(C(=O)NCc3ccc(N(C)C)cc3)cnc2s1 | inactive: 5.8%
32 | CCC(=O)N1CCc2cc(S(=O)(=O)NC(C(=O)NCCc3cccc(C)c3)C(C)C)ccc21 (centres undefined) | inactive: -3.04%
33 | CN(Cc1ccco1)S(=O)(=O)c1nnc(NC(=O)c2ccccc2Cl)s1 | inactive: -8.27%
34 | O=C(NCc1cccs1)c1ccc(CSc2nc3ccncc3n2Cc2ccccc2F)cc1 | inactive: 12.1%
35 | COc1ccc(C(=O)CCC(=O)Nc2ccc(C)c(Cl)c2)cc1 | inactive: 7.94%
36 | COc1cc(Cl)c(C)cc1Nc1nc2ccccc2n2cnnc12 | inactive: -14.4%
37 | COc1ccccc1CNC(=O)C1CCN(S(=O)(=O)c2cn(C)cn2)CC1 | inactive: -21.4%
38 | CCc1ccccc1N(C)C(=O)c1sc2nc3n(c(=O)c2c1C)CCCCC3 | inactive: -1.9%
39 | COc1ccc(CNC(=O)C2CCN(S(=O)(=O)c3ccc4c(c3)CCCN4C(C)=O)CC2)cc1 | inactive: -18%
40 | CCc1ccccc1NC(=O)c1sc(-n2nc(C)c(Cc3ccccc3)c2C)nc1C | inactive: 2.31%
41 | COCc1cc(C)nc2sc3c(=O)n(-c4ccccc4C(F)(F)F)nnc3c12 | inactive: -4.33%
42 | Cc1ccc(C)c(CSc2nnc3[nH]c(=O)cc(-c4ccccc4)n23)c1 | inactive: -8.28%
43 | CCCn1cc(S(=O)(=O)c2cc(C)ccc2C)c(=O)c2cc(F)c(N3CCN(CC)CC3)cc21 | inactive: -13.8%
44 | CCOC(=O)c1c(S(=O)(=O)NCC(=O)NCc2ccccc2Cl)c(C)n(C)c1C | inactive: 6.09%
45 | COCCCn1c(=O)c2sccc2n2c(CCCC(=O)NC3CCC(C)CC3)nnc12 (centres undefined) | inactive: -14.8%
46 | CCCCCCCc1ccc(CCc2cccc(O)c2C(=O)O)cc1 | inactive: -3.5%
47 | Cc1cccc(C)c1-n1ncc(C(=O)N2CCN(c3ncccn3)CC2)c1C1CCN(C(=O)OC(C)(C)C)CC1 | inactive: -4.9%
48 | COc1ccc(C(=O)N(Cc2ccc(N(C)C)cc2)CC2CCCO2)cc1 (centres undefined) | inactive: 0.0953%
49 | CC(C)(N)C(=O)N[C@H](COCc1ccccc1)C(=O)N1CCC2(CC1)CN(S(C)(=O)=O)c1ccccc12 | inactive: 3.55%
